Test results as given in the supplement of paper PMC9513381.
Recombinant human monoclonal antibodies (heavy:light variable regions). ELISA EC50 on the named antigen, from 10 µg/ml down; IC50 / IC90 against spike pseudovirus on 293T-ACE2 cells, 48 h; lower = stronger. Calls: IC50 above 1,000 ng/ml = non-neutralizing; EC50 above 1,000 ng/ml = non-binder. The source prints 1000 for neutralization that was not reached; it is given as >1000 ng/ml. Only binders of the Wuhan-Hu-1 domain have neutralization values.

B1: B2123 (protein)
chain 1: QLVQSGPEIKKPGTSVKVSCKASGFTFSNSAVQWVRQARGQHLEWIGWIVVGSGDPNYAQKFQERVTLTRDMSTGTAYMELSSLRSEDTAFYYCATNNCSRTICSDGFDIWGQGTMVTVSS
chain 2: DIQLTQSPSSLSASVGDRVTITCRASQSIRSYLNWYQQKPGKAPKLLIYVASSLQTGVPSRFSGSGSGTEFTLTISSLQPEDFATYYCQQSYSTPPWTFGQGTKVEIK
B2: B2008 (protein)
chain 1: B1 chain 1
chain 2: DIQMTQSPSTLSASVGDRVTITCRASQSLTSWLAWYQQKPGKAPNLLIYDASILDSGVPSRFSGSGSGTEFTLTISSLQPQDFATYYCQQYKGYPWTFGQGTKVEIK
B3: B2122 (protein)
chain 1: VQLVESGGGVVQPGRSLRLSCAASGFTFSDYGMHWVRQAPGKGLEWLAVISSDGSLKYFDDSVKGRFTISRDNSKNTLYLQMNSLRVEDTAVYYCAKDRDLESFLLLDYWGQGTLVTVSS
chain 2: DIQLTQSPSSLSASVGDRVTITCRASQSIATYLNWYQQKPGKAPKLLIYAASSLQSGVPSRFSGSGSGRDFTLTISGLQREDFATYYCQQSYSTPPITFGQGTRLEIK
B4: B2015 (protein)
chain 1: QVQLVQSGAEVKKPGSSVKVSCKASGGTLSSTAISWVRQAPGQGPEWMGRIIPIFGTTDYAPNFQGRVTITADESTSTVYMELSSLRFQDTALYYCARDHETAPLYGMDVWGQGTTVTVSS
chain 2: DIQLTQSPSSLSASVGDRVTITCRASQSISRFLNWYQQKPGKAPELLIYATSTLQDGVPPRFSGSGSGTDFTLTISSLQPEDFATYYCQQSYSIPPITFGQGTRLEIK
B5: B2021 (protein)
chain 1: QVQLQESGPGLVKPSQTLSLTCTVSGGSISSYGYYWSWIRQHPEKGLEWIGHIYYSGSTYYNPSLKSRVTISVDTSKNQFSLKLSSLTAADTAVYYCARDPLAGRGQFDRWGQGTLVTVSS
chain 2: IRMTQSPSSLSASVGDRVSITCQASQDISNFLNWYQQKPGQAPKLLIYDASSLETGVPSRFSGSGSGTHFTFTISSLQPEDIATYYCQQFDDVPPSFGQGTKLEIK
B6: B2120 (protein)
chain 1: QLQLQESGPGLVKPSETLSLTCTVSGGSVSSYLYYWGWIRQPPGKGLEWIGTIFYSGTTYYNVSLKRRGTISIDTSKNQFSLRLSSVTAADTAVYYCARLGGSIGPHLAAAGTPDYWGQGTLVTVSS
chain 2: IRMTQSPSSLSASVGDRVTITCQASQDISNYLNWYQQKPGKAPKLLIYDASNLETGVPSRFSGSGSGTDFTFTISSLQREDVATYYCQQYDNLPLTFGGGTKVEIK
B7: B2124 (protein)
chain 1: EVQLVQSGAVVKKPGESLKISCQGSGYSFPYYWIGWVRQMPGKGLEYMGVVYPSDSDTKYSPSFQGQVTISADKSISTAYLQWNGLKASDTAMYYCARIDPHDCSGGACFPAGFDPWGQGTLVTVSS
chain 2: DIQMTQSPSSLSASVGDRVTITCQASQDIGNYLNWYQQKPGKAPKLLIYDASNLETGVPSRFSGSGSGTDFTFTISSLQPEDIATYYCQQYDNLLLTFGPGTKVDIK
B8: B2126 (protein)
chain 1: QVQLQESGPGLVKPSQTLSLTCTVSGASISNGGYYWSWIRQHRGQGLEWIGYIYYSGDTYYNPSLKSRLIMSVDTSKNQFSLELSSVTAADTALYYCARIRTPLTRDTEGEHAFDMWGQGTMVTVSS
chain 2: DIQLTQSPSSLSASVGDRVTITCRASQSISSYLNWYQQKPGKAPKLLIYAASSLESGVPSRFSGSGSGTEFTLTISSLQREDFATYYCQQSHSILFTFGQGTRLEIK
B9: B2017 (protein)
chain 1: QVQLVQSGAEVKKPGSSVKVSCKASGGIFSSYAISWVRQAPGQGLEWMGGIIPIFGTTTYAQKFQGRVTITADESTTTAYMELSSLRSEDTAVYYCASGPPTYNDFWSGYSFDYWGQGTLVTVSS
chain 2: EIVLTQSPGTLSLSPGERATLSCRASQSVNSDFLAWYQQIPGQAPRLLIYGASNRATGIPEKFSGSGSGTDFTLTISRLEPEDFAVYYCQQYGNSPFTFGPGTKVDIK
B10: B2019 (protein)
chain 1: EVQLVESGGGLVQPGRSLRLSCAASGFNIADYGMHWVRQAPGKGLEWVAGISWNSGRIGYADSVKGRFTISRDNAKKSLSLQMNSLRAEDTALYYCAKTYCGGDCYSLLLYDPLDIWGQGTMVTVSS
chain 2: DIQLTQSPSSLSASVGDRVTITCRASQDISNDLAWYQQKPGKVPKLLIYGASTLQSGVPSRFSGSGSGTDFTLTISSLQPEDVATYYCQQYNSGGTFGPGTKVDIK
B11: B2121 (protein)
chain 1: QLQLQESGPGLVKPSETLSLTCSLSGGSISSSSYYWGWIRQPPGKGLEWIGGIYYSANTLYNPSLKSRVSISVDTSKNQFSLKVRSVTAADTAVYYCARFHCTTNRCYGDDWYFDLWGRGTLVTVSS
chain 2: SYELTQPPLVSVSPGQTARITCSGDAFPNQYAYWYQQKSGQAPVLVIYKDSERPSGIPERFSGSSSGATVTLTISGVQAEDEADYYCQTADSRGTLFGGGTKLTVL
B12: B2018 (protein)
chain 1: QVQLVQSGAEVKKPGSSVKVSCKTSGGTFSSYAISWVRQAPGQGLEWMGGIIPRFGIPNYVQKFQGRVTITADKSTSTAYMELASLRSEDTAVYYCARVGDRSTVPYFDYWGQGILVTVSS
chain 2: EIVMTQSPATLSVSPGERATLSCRASQSVSSDLAWYQQKPGQAPRLLISGASTRATGIPARFSGSGSGTEFTLTISSLQSEDFAVYYCQQYNNWPITFGQGTRLEIK
B13: B2016 (protein)
chain 1: VQLVESGGGVVQPGRSLRLSCAASGFTFSNYAMHWVRQTPGKGLEWVAVISYDGSKKYYGDSVKGRFTISRDNSKNTLYLEMNSLRAEDTAVYYCAKAEGPYGSGTSHYYYGMDVWGQGNTVTVSS
chain 2: DIQLTQSPSSLSASVGDRVTITCRASQSISTYLHWYQQKPGKAPNLLIYAASSLQSGVPSRFRGSGSGADFTLTISSLQPEDFATYYCQQSYSTPLTFGGGTKVEIK
B14: B2020 (protein)
chain 1: VQLVESGGGVVQPGTSVRLSCAASRFTFSSYGMHWVRQAPGKGLEWVAGISFHGSNKYYADSVKGRFNISRDNSKNTLSLQMNSLRTEDTAVYYCAKDRGGGILRFLEWLSDYDCGLDVWGQGTTVTVSS
chain 2: DIQMTQSPSSLSASVGDRVTITCRASQNINRYLNWYQQKPGEAPKLLIYAASSLQSGVPSRFSGSGSGTDFALTISSLQPEDFANYYCQQTYRTPPSTFGQGTRLEIK

Key:
[1] = target: SARS-CoV-2 Wuhan-Hu-1 spike pseudovirus; assay: pseudovirus neutralization IC50; higher = weaker neutralization
Procedure: (§1)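 Single-round luciferase reporter pseudovirus mixed with antibody dilutions and put on 293T-ACE2 cells for 48 h; signal relative to no-antibody wells, four-parameter fit.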

[2] = target: SARS-CoV-2 Wuhan-Hu-1 spike pseudovirus; assay: pseudovirus neutralization IC90; higher = weaker neutralization
Procedure: as §1

[3] = target: SARS-CoV-2 Delta (B.1.617.2) spike RBD; assay: ELISA binding EC50; higher = weaker binding; ELISA of recombinant human antibody on coated antigen, from 10 µg/ml in fourfold dilutions; four-parameter fit.
[4] = target: SARS-CoV-2 Omicron BA.1 spike protein; assay: as above
[5] = target: SARS-CoV-2 Wuhan-Hu-1 spike receptor-binding domain; assay: as above

Binder	pseudovirus neutralization IC50 [1] [µg/mL]	pseudovirus neutralization IC90 [2] [µg/mL]	ELISA binding EC50 [3] [µg/mL]	ELISA binding EC50 [4] [µg/mL]	ELISA binding EC50 [5] [µg/mL]
B1	> 1	> 1	> 1	> 1	0.0122
B2	> 1	> 1	> 1	> 1	0.226
B3	0.67	> 1	0.0228	0.0931	0.00132
B4	0.124	> 1	0.00589	0.00575	0.00378
B5	> 1	> 1	0.0103	0.00434	0.00235
B6	> 1	> 1	0.0136	0.00536	0.00412
B7	0.0104	0.395	0.0103	0.0117	0.00249
B8	0.00599	0.0303	0.00261	0.048	0.0025
B9	> 1	> 1	0.0323	0.0081	0.00469
B10	0.0366	0.9	0.0072	0.0162	0.00234
B11	> 1	> 1	0.00711	0.119	0.0023
B12	0.0215	0.117	> 1	> 1	0.0027
B13	0.0184	0.127	> 1	> 1	0.00123
B14	> 1	> 1	> 1	> 1	0.01
